# Article PMC4336329 (PLoS ONE, 2015)
# The whole screen tested about 310,000 compounds, of which about 2,200 (0.71%) showed an effect of 50% or more. Effects have a minus sign here. The list shows a part of the results.
# Biological target: human ether-à-go-go-related gene (hERG) potassium channel (human, UniProt Q12809)
# Assay: primary screen, population patch clamp on CHO cells stably expressing hERG
# human ether-à-go-go-related gene (hERG) potassium channel, sequence (Q12809 whole entry, looked up): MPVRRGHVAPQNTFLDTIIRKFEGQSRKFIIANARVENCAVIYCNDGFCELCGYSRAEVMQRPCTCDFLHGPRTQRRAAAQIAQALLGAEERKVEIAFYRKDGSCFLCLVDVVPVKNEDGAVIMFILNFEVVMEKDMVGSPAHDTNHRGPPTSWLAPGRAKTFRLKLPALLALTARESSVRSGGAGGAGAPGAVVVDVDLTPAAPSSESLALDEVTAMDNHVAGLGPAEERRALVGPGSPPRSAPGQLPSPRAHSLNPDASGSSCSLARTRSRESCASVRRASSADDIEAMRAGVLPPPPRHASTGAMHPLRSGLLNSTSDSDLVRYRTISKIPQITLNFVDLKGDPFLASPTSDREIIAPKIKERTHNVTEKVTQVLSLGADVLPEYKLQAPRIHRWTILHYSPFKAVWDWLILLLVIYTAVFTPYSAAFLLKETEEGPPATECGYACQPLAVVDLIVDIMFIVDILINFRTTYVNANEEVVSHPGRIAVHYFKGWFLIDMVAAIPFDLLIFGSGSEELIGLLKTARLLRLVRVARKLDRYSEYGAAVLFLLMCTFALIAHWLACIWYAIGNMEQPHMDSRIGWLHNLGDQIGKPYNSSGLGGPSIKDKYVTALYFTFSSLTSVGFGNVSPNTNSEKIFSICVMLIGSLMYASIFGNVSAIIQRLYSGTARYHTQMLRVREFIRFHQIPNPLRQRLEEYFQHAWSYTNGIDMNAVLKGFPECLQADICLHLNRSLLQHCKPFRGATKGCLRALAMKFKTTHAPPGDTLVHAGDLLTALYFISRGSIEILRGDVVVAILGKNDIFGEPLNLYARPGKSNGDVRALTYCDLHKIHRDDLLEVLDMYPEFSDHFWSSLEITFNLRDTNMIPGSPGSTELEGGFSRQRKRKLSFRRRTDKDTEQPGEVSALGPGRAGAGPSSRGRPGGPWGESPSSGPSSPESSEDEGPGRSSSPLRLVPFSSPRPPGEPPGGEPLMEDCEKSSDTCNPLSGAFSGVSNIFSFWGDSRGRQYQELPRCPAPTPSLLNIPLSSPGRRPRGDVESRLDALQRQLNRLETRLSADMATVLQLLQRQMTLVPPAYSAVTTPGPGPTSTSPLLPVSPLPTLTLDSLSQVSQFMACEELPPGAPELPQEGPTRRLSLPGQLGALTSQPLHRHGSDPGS
row,SMILES,"hERG current change (%, negative = inhibition) at 1uM [%]"
1,O=C(O)C1CCC(CNCc2ccccc2Cl)CC1 (stereo not drawn),1.77
2,COc1ccc(NC(=O)Cn2nnc(-c3ccccc3NC(=O)C3CC3)n2)cc1,3.7
3,COC(=O)C1=C(C)NC(C)=C(C(=O)OC)C1C(=O)OCC(=O)N1c2ccccc2CC1C (stereo not drawn),8.89
4,CCCc1cc(C(=O)Nc2cccnc2)no1,9.6
5,CCN1CCc2c(sc(NC(=O)COc3ccccc3)c2C(=O)OC)C1.Cl,-22.2
6,COc1cccc(/C(C#N)=C/c2c(-c3ccc(Cl)cc3)nc3c(C)cccn23)c1,16.7
7,O=C(NC1CC1)c1cccc(NC(=O)c2cn3ccccc3n2)c1,-5.66
8,CSc1ncccc1C(=O)NNC(=O)c1ccc(NS(=O)(=O)c2cccs2)cc1,12.2
9,Cc1ccc(CC(=O)NC(C)CCc2ccccc2)cc1 (stereo not drawn),8.53
10,Cc1cccc(-n2nnc(C(=O)NCc3ccccc3Cl)c2N)c1,4.35
11,COc1ccc(NC(=O)C(C)N(C)Cc2ccc3ccccc3c2)cc1 (stereo not drawn),-4.45
12,O=C(CO/N=C/c1ccccc1O)NNC(=O)c1ccccc1Cl,15.3
13,Cn1c(=O)c2cnc(-c3ccc(C(F)(F)F)cc3)nc2n(C)c1=O,24.2
14,COc1ccc2c(c1)c(C(=O)N/N=C/c1cccs1)c(C)n2C,6.59
15,CC(=O)NS(=O)(=O)c1ccc(NC(=O)c2cc3c(=O)n4ccccc4nc3s2)cc1,3.59
16,NC(=O)NC(=O)COC(=O)CNS(=O)(=O)c1ccc(F)c(F)c1F,12.2
17,CCc1ccc(-c2nc(CS(=O)CC(=O)O)c(C)o2)cc1 (stereo not drawn),9.1
18,Cc1cccc(N2CCN(C(=O)c3ccnn3C)CC2)c1C,10.4
19,C/C(=N\NC(=O)c1ccc(Cl)cc1)c1ccccn1,8.17
20,CCc1cc(=O)oc2cc(C)cc(OCC(=O)NCCN3CCOCC3)c12,10.8
21,Cc1ccc(Nc2nc(Oc3ccc(=O)[nH]n3)nc(N(C)C)n2)cc1,0.276
22,O=C(O)c1cccc(S(=O)(=O)N2CC=C(c3ccccc3)CC2)c1,2.39
23,O=C(C[n+]1ccccc1)Nc1ccccc1C(=O)O.[Cl-],-1.28

row,SMILES,"hERG current change (%, negative = inhibition) at 1uM [%]"
1,O=C(CCN1C(=O)/C(=C/c2ccc(F)cc2)SC1=S)NNC(=O)c1ccncc1,9.23
2,O=C(CSc1nc(-c2ccccc2)cs1)N1CCc2ccccc21,-0.264
3,CCC1CCCCN1C(=O)COc1ccc(N(C)S(=O)(=O)c2ccc(C)cc2)cc1 (stereo not drawn),8.11
4,N#C/C(=C\c1cccnc1)C(=O)NC1CCCCC1,14.1
5,Cc1c(N=Cc2ccc(-c3ccc(Cl)cc3)o2)c(=O)n(-c2ccccc2)n1C,7.88
6,O=S(=O)(c1cccs1)n1nnc2ccccc21,16.9
7,COc1ccc(CCN(C)C(=O)CNC(=O)Cc2cccc3ccccc23)cc1OC,2.44
8,COc1ccc(CCNC(=O)CN(C)S(=O)(=O)c2ccc3c(c2)CCC(=O)N3)cc1OC,13.8
9,COc1ccc(Nc2oc(-c3ccccc3)nc2C#N)cc1,9.51
10,Cc1cc(C)cc(N(C(=O)Cc2cccs2)C(C(=O)NC2CCCC2)c2ccc(C)o2)c1 (stereo not drawn),2.72
11,COc1ccc(OC)c(NC(=O)C2CCCN(S(=O)(=O)c3cccc4cccnc34)C2)c1 (stereo not drawn),11.1
12,CC1(C)C(CO)=CC(=O)C2=C1SCC(=O)N2,-13.1
13,COc1cc(/C=C2\SC(=S)N(N3CCOCC3)C2=O)cc(OC)c1OC,13.7
14,COc1ccccc1C1NC(=O)NC(C)=C1C(=O)Nc1cccc(C)c1C (stereo not drawn),13.1
15,COc1ccc2ccccc2c1/C=N/NC(=O)c1ccccc1F,7.02
16,COc1cccc(CN2CCN(C3CCN(c4ccccc4C)CC3)CC2CCO)c1 (stereo not drawn),-30.4
17,O=C(COC(=O)C1CCN(S(=O)(=O)c2ccccc2C(F)(F)F)CC1)NCc1ccc(F)cc1,9.09
18,COc1ccc(C(C(=O)NCC2CCCO2)N(Cc2ccc(F)cc2)C(=O)CNC(=O)c2ccco2)cc1OC (stereo not drawn),16.4
19,O=C(CC12CC3CC(CC(C3)C1)C2)N/N=C/c1ccc([N+](=O)[O-])o1,-2.93
20,CN1CCN(C(CNS(=O)(=O)c2ccc(Br)cc2)c2ccc3c(c2)OCO3)CC1 (stereo not drawn),-59.5
21,CCCn1c(CNC(=O)c2ccccc2)nc2ccccc21,-3.44
22,O=C(Nc1cccc(Br)c1)c1ccc2snnc2c1,11.9
23,COc1ccc(OCC(=O)N2CCN(C(=O)c3ccc(F)cc3)CC2)cc1,-10.8

row,SMILES,"hERG current change (%, negative = inhibition) at 1uM [%]"
1,O=c1[nH]c2ccc(NC(=S)Nc3ccc(Cl)cc3Cl)cc2[nH]1,-1.31
2,Cn1c(COc2ccc(F)cc2)nc2ccccc21,9.65
3,O=C(O)c1ccc(-n2nnnc2Oc2ccccc2C(=O)N2CCOCC2)cc1,7.38
4,Cc1cc(NC(=O)COC(=O)C2CC(=O)N(c3ccccc3Cl)C2)no1 (stereo not drawn),17.8
5,COc1ccc(C(=O)COC(=O)CCN=C2NS(=O)(=O)c3ccccc32)c(OC)c1,-4.54
6,O=C1CSC(c2ccc(F)cc2)N1c1ccccc1F (stereo not drawn),3.81
7,O=C(Nc1ccccc1N1CCCCC1)c1cccc([N+](=O)[O-])c1,9.68
8,Cc1nc2c3ccccc3nc(NNC(=O)CCC(=O)N3CCN(c4ccccc4)CC3)n2n1,11.7
9,COCCN(Cc1ccccc1)C(=O)C1CCN(S(=O)(=O)c2ccc(OC)c(OC)c2)CC1,8.5
10,Cl.Clc1ccc(CNCCCSc2ncccn2)cc1,7.51
11,Cc1ccc(CONC(=O)c2ccc(C)cc2)cc1,8.7
12,Cc1cn(-c2ccc(Br)cc2)[nH]c1=O,10.8
13,CC(C)CC[n+]1ccn(-c2nc3ccccc3nc2[N-]S(=O)(=O)c2ccc(Cl)cc2)c1,13
14,CCCCOC(=O)Nc1ccccc1C(=O)N1CCCC1,5.99
15,Cc1ccc(NC(=O)C2CC=CCC2C(=O)N2CCCCC2)cc1 (stereo not drawn),0.464
16,O=C(NOC(=O)c1cc(Br)ccc1Cl)c1cccs1,10.6
17,COc1ccc(C)cc1S(=O)(=O)Nc1ccncc1,8.1
18,O=C(NCC(O)c1ccc([N+](=O)[O-])cc1)C1CCCCC1 (stereo not drawn),12.3
19,CC(C)C(NC(=O)c1ccc([N+](=O)[O-])cc1Cl)C(=O)N1CCCC1 (stereo not drawn),9.21
20,Cc1cccc(N2CCN(C(=S)c3ccc(-c4ccccc4[N+](=O)[O-])o3)CC2)c1,0.626
21,CC(C)C(OC(=O)c1cc2sccc2n1C)C(=O)NCC1CCCO1 (stereo not drawn),-2.5
22,O=C(O)c1ccccc1C(=O)Nc1nccs1,5.54
23,CC1Cc2cc(S(=O)(=O)N3CCCC(C(=O)N4CCCCC4)C3)ccc2N1C(=O)C1CC1 (stereo not drawn),10.1

row,SMILES,"hERG current change (%, negative = inhibition) at 1uM [%]"
1,CC(C)(C)OC(=O)n1cc(C(=O)c2ccccc2O)cn1,16.8
2,CCCC12CN3CCN(CC(C3)/C1=N\NC(=O)c1ccccc1N)C2,11
3,Cn1c(CNc2cccc(Cl)c2)nnc1SCC(=O)OC1CCCCC1,8.3
4,CCn1c(SCC(=O)Nc2cccc(C)c2)nc2c(c1=O)SC(C)C2 (stereo not drawn),5.16
5,Cc1oc2c(c1C(=O)NCc1ccccc1)CCCC2,10.7
6,Cc1ccc(C2C3=C(CC(C)(C)CC3=O)Nc3onc(C)c32)cc1 (stereo not drawn),7.47
7,COc1ccc(C(=O)Nc2cccc3nc(C)ccc23)c(OC)c1,13
8,CC(=O)Nc1ccc2c(c1)OCO2,12.8
9,Cc1ccc2nc(NC(=O)[C@H](C)N3C(=O)C4CC=CCC4C3=O)sc2c1 (stereo partly drawn),6.36
10,CN(C)CCn1cnc2c1c(=O)[nH]c(=O)n2Cc1ccccc1.Cl,8.26
11,COc1ccc(NC(=S)N2CCN(C/C=C/c3ccccc3)CC2)cc1OC,2.82
12,CCc1ccc(N2C(=O)NC(=O)/C(=C\c3cccn3CCOc3ccc(C(C)C)cc3)C2=O)cc1,14.3
13,N#Cc1ccccc1NC(=O)CN1CCN(Cc2ccccc2)CC1,-18.9
14,Cc1cccc(C(=O)Nc2nnc(-c3ccco3)o2)c1,14
15,CS(=O)(=O)N1CCc2cc(C(=O)N3CCCC3)ccc21,10.6
16,CSc1nc(C)c2c(n1)N(c1ccc(F)cc1)CC2,20.1
17,Cc1cccc(Cc2nnc(CCC(=O)NCc3ccncc3C)o2)c1,12.2
18,Oc1ccc(Br)cc1C1Nc2ccccc2S1 (stereo not drawn),18.4
19,Cc1cc(=O)n(CC(=O)NCCN2CCOCC2)c2c1c(C)nn2-c1ccccc1,20.4
20,Cc1cc(=O)oc2c(CN3CC(C)OC(C)C3)c(O)c(Cl)cc12 (stereo not drawn),17
21,CCCOc1cccc(C2C(C(=O)c3ccco3)=C(O)C(=O)N2CCCn2ccnc2)c1 (stereo not drawn),11.3
